Hit rate of the full screen: of about 50,000 compounds, about 800 (1.6%) showed an effect of 50% or more. The list shows a part of the results.

This test concerns the target Bcl-2-like protein 10 (Homo sapiens) (UniProt Q9HD36). The experiment in a line: Phenotype converters, Bcl-B/TR3 peptide binding displacement, primary biochemical FP (AID 1240).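 Note: 0% = Bcl-B with tracer peptide and DMSO and 100% = tracer peptide lacking Bcl-B.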 The following applies: GST-Bcl-B / FITC-TR3 peptide fluorescence polarization; stronger effect = higher value; compound at 3.75 mg/L.
Chain of UniProt Q9HD36 (Q9HD36 whole entry, looked up): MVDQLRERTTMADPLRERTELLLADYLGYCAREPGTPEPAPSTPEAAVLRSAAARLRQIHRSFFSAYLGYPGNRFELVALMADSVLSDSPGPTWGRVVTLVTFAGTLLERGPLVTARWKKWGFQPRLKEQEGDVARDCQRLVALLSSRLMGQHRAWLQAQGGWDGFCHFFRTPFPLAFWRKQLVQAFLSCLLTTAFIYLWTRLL
With `O=C1NC(=S)N(c2cccc(Br)c2)C(=O)/C1=C\c1cc(Cl)ccc1O`, the displacement was 0%.

Take `COC(=O)c1sccc1NC(=O)c1cccc2ccccc12`: the displacement is 36.6%.

As to `NC(=S)N/N=C/c1ccc(-c2cc(Cl)cc(Cl)c2)o1`, the displacement stood at 17.1%.

On to `CCc1ccccc1NC(=O)CCc1ccccc1`, for which the displacement came out at 11.9%.

As to `C=CCOc1c(Cl)cc(/C=C2/C(=O)NC(=O)N(c3ccccc3F)C2=O)cc1OCC`, the displacement was found to be 37.4%.

For `Cn1c2ccccc2c2nnc(SCC(=O)N(c3ccccc3)c3ccccc3)nc21`, the displacement was found to be 38.2%.

For the compound `COc1cccc(OCCOCCN2CCCC2)c1`, the displacement amounted to 7.5%.

Turning to `Cc1ccc(N2C(=O)CC(NCCc3ccccc3)C2=O)cc1` (stereo not drawn), the displacement was 4%.

On to `COC(=O)c1cc(C(=O)Nc2ccc(C)cn2)cc([N+](=O)[O-])c1`, for which the displacement was -0.2%.

With `CCN(CC)C(=O)C(=O)N/N=C/c1cccc(Br)c1`, the displacement is 9.8%.

As for `CCOc1ccccc1CN1CCN(Cc2cc(OC)ccc2O)CC1`, the displacement amounted to 4.7%.

On to `CC(C)(C)c1ccc(/C=C/C(=O)N2CCc3ccccc3C2)cc1`, for which the displacement amounted to 6.2%.

Turning to `CS(=O)(=O)c1ccc2nc(NC(=O)/C=C/c3ccc(F)cc3)sc2c1`, the displacement was determined as 7.3%.

As to `COc1ccccc1NC(=O)COc1ccc(Cl)cc1`, the displacement was found to be 10%.

On to `COc1ccc(C(=O)Nc2sc3c(c2C#N)CCCCC3)cc1`, for which the displacement was -3.4%.

As to `O=C(Nc1ccc2oc(-c3ccccc3)nc2c1)c1ccncc1`, the displacement is -3.2%.

Turning to `Cc1ccc2cccc(SCC(=O)Nc3ccc([N+](=O)[O-])cc3)c2n1`, the displacement was determined as 11.9%.

For the compound `Cc1sc2nc(SCC(=O)N3CCOCC3)[nH]c(=O)c2c1C`, the displacement amounted to 34.3%.

Regarding `Cc1ccc(CN2CCN(/N=C/c3ccc(C(F)(F)F)cc3)CC2)cc1`, the displacement turned out to be 12.8%.

Turning to `COc1cc(NS(=O)(=O)c2ccc(N/C=C/C(=O)c3cccs3)cc2)nc(OC)n1`, the displacement stood at 8.5%.

Turning to `CCN(Cc1ccccc1)C(=O)c1cccc([N+](=O)[O-])c1`, the displacement was -13.3%.

On to `Nc1nnc(SCC(=O)n2c3ccccc3c3ccccc32)s1`, for which the displacement was 32.8%.

Take `CC(/C=N\N1CCN(c2ccccc2)CC1)=C\c1ccccc1`: the displacement was -6%.

As to `COc1ccccc1N1CCN(/N=C\c2ccccc2[N+](=O)[O-])CC1`, the displacement was -2.4%.

Take `COc1ccc(CC2S/C(=N\N=C\c3cccs3)NC2=O)cc1` (stereo not drawn): the displacement worked out at 1.7%.

In the case of `Cc1cc(Cl)ccc1OCCCC(=O)Nc1ccc(C(N)=O)cc1`, the displacement came to 14.7%.

As to `O=C(/C=C/c1ccc(Cl)cc1Cl)Nc1ccc2c(c1)OCO2`, the displacement came out at 9.4%.

As for `Cc1ccc(S(=O)(=O)Nc2cc(Sc3nc4ccccc4[nH]3)c(O)c3ccccc23)cc1`, the displacement stood at 5.6%.

For the compound `COc1ccc(NC(=O)c2ccc(C)c(C)c2)c(OC)c1`, the displacement came out at 10.6%.

`O=C1S/C(=C\c2ccc([N+](=O)[O-])cc2)C(=O)N1Cc1ccccc1`: the displacement was -1.4%.

For the compound `O=C(Nc1ccc(Br)cc1C(=O)O)c1ccc2c(c1)C(=O)N(C1CCCCC1)C2=O`, the displacement is 2.9%.

Turning to `COc1cccc(OCCCCN2CCCC2)c1`, the displacement stood at 5.3%.

As to `Cc1ccc(S(=O)(=O)Nc2cc(-c3ccc(F)cc3)[nH]n2)cc1`, the displacement is 8.8%.

With `O=C1S/C(=C/c2cccc(O)c2)C(=O)N1c1ccccc1`, the displacement was 1.9%.

Turning to `O=C(c1cccc2ccccc12)N1CCN(c2ccccc2)CC1`, the displacement came out at 0.1%.

Take `O=C(CN(Cc1ccccc1)S(=O)(=O)c1ccc(Cl)cc1)Nc1ccccc1`: the displacement was -15.2%.

Regarding `CCOc1cc(C2C3=C(CC(C)(C)CC3=O)OC3=C2C(=O)CC(C)(C)C3)cc(Br)c1O`, the displacement came to 13.6%.

Take `CCOC(=O)/C(=N/O)C1=NC(C)(C)Cc2cc(OC)c(OC)cc21`: the displacement came out at 12.6%.

With `CS(=O)(=O)N(CC(=O)Nc1cccc2ccccc12)c1ccc(Oc2ccccc2)cc1`, the displacement was 5%.

In the case of `COc1ccc(-c2cc(C(F)(F)F)n3nc(C(=O)NCCN4CCOCC4)c(Cl)c3n2)cc1`, the displacement is -10.2%.

In the case of `COc1cc(C)c(N(C(C)=O)c2ccccc2)c(C)c1`, the displacement was -3.3%.

In the case of `Cc1onc(-c2ccccc2Cl)c1C(=O)Nc1nc(-c2ccc([N+](=O)[O-])cc2)cs1`, the displacement is -12.5%.

As for `CC(=Nc1ccc(C)cc1)c1c(O)n(C)c(=O)n(C)c1=O`, the displacement was 5.1%.

As for `CN1CCN(C(=S)NC(=O)/C=C/c2ccc(Br)cc2)CC1`, the displacement is -0.6%.

As to `COc1cc([N+](=O)[O-])ccc1NC(=O)COc1cccc(Cl)c1`, the displacement came out at 6.2%.

On to `COc1ccc2nc(NC(=O)c3sc4cc([N+](=O)[O-])ccc4c3Cl)sc2c1`, for which the displacement is -17.3%.

Consider `O=P(Cc1ccccc1O)(c1ccccc1)c1ccccc1`, for which the displacement is 1.6%.

As for `COc1ccc(CN2CCN(C(=O)c3cccc(OC)c3OC)CC2)c(OC)c1`, the displacement is -14.3%.

In the case of `Cc1cc(Cl)ccc1OC(C)C(=O)Nc1cc(Cl)ccc1Cl` (stereo not drawn), the displacement is -5.1%.

Take `O=C(N=Nc1c(O)[nH]c2ccccc12)c1ccccn1`: the displacement is -7.8%.

For the compound `CCOc1ccc(C(=O)Nc2ccc(-c3nc4ccccc4o3)c(O)c2)cc1[N+](=O)[O-]`, the displacement came to 2.3%.

As for `CCOc1ccccc1NC(=O)c1cc(Cl)ccc1Cl`, the displacement was -13%.

Turning to `Cc1cc(C)n2nc(-c3cccc(F)c3)cc2n1`, the displacement turned out to be 14.1%.

In the case of `C=CCn1c(=O)c(C(=O)Nc2ccccc2Cl)c(O)c2ccccc21`, the displacement is -2.3%.

For the compound `Cc1ccccc1NC(=O)/C=C/c1ccc(F)cc1`, the displacement is 10.3%.

As for `NS(=O)(=O)c1cccc(C(=O)Nc2ccc([N+](=O)[O-])cc2)c1`, the displacement was 7.8%.

Turning to `COc1c(Cl)cc(Cl)cc1C1NC(=S)NC(C)=C1C(=O)Nc1ccccc1` (stereo not drawn), the displacement was -15.8%.

Consider `CCOc1ccc(C=Nc2ccc3c(c2)nc(C)n3C)cc1`, for which the displacement is 6.5%.

`Cc1cc(C(=O)Nc2ccc(NC(=O)C(=O)O)cc2)c(C)o1`: the displacement was 7.1%.

As for `O=C1S/C(=C/c2ccccc2F)C(=O)N1CNc1cccc(C(F)(F)F)c1`, the displacement was -4.4%.

In the case of `CCCCCCC(=O)Nc1nnc(CCC)s1`, the displacement is -9.7%.

As for `Cc1ccc2ncnc(Nc3cccc(C(F)(F)F)c3)c2c1`, the displacement is -3.1%.

As for `C=CCc1cccc2cc(C(=O)NCc3ccccc3)c(=O)oc12`, the displacement came to 34.1%.

Regarding `CC1=C(C(=O)OCCc2ccccc2)C(c2ccccc2[N+](=O)[O-])CC(=O)N1` (stereo not drawn), the displacement is -0.5%.

Turning to `COc1ccc(-c2cc(C(=O)NN)c3cc(Br)ccc3n2)cc1`, the displacement was 25.3%.

For `O=c1oc(-c2cccs2)nc2sc3c(c12)CCCCC3`, the displacement is 15%.

In the case of `O=C(NCc1ccc(Cl)cc1)C(=O)Nc1ccc(F)cc1`, the displacement is -0.1%.

As to `CC(/C=C/c1ccc2c(c1)OCO2)=N\NC(=O)C(O)c1ccccc1` (stereo not drawn), the displacement was found to be 0.3%.

For the compound `c1ccc2nc(NCc3ccncc3)ccc2c1`, the displacement was -8.8%.

For the compound `O=[N+]([O-])c1ccc(/C(=N\Nc2ccccc2)c2cc(O)ccc2O)cc1`, the displacement is 6.6%.

Turning to `Cc1ccc(OCC(=O)Nc2cc3nn(-c4ccc(C)cc4)nc3cc2C)cc1`, the displacement worked out at 1.3%.

Consider `CCOC(=O)c1ccc(N2C(=O)C3C(c4ccc(C)cc4)OC4(C(=O)c5ccccc5C4=O)C3C2=O)cc1` (stereo not drawn), for which the displacement was -7.3%.

On to `NC(=O)c1ccc(NC(=O)COc2ccccc2Cl)cc1`, for which the displacement was -2%.

For the compound `CCOC(=O)c1cccc(N2C(=O)C=CC2=O)c1`, the displacement worked out at 9.4%.

On to `CCOC(=O)c1c(NC(=O)c2ccc(Cl)cc2)sc(C(=O)Nc2cc(C(F)(F)F)ccc2Cl)c1C`, for which the displacement came out at 7.7%.

Take `O=c1cc(-c2ccccc2)[nH]n1-c1ccc([N+](=O)[O-])cc1`: the displacement was -4.4%.

As to `Cc1ccc(N=Cc2c[nH]c3ccccc23)cc1[N+](=O)[O-]`, the displacement is -3.4%.

In the case of `Cc1ccccc1NC(=O)c1cccnc1`, the displacement is -3.6%.

`Cc1cccc(OCC(=O)NCC(=O)n2nc(C)cc2C)c1`: the displacement is -0.8%.

In the case of `COc1cccc(NC(=O)CN(c2cccc([N+](=O)[O-])c2)S(=O)(=O)c2ccccc2)c1`, the displacement was -7.1%.

With `Cc1cc(/C=C2\C(=O)NC(=O)N(c3ccc(Br)cc3)C2=O)c(C)n1-c1cccnc1`, the displacement amounted to 40.6%.

On to `Cc1ccc2nc(SCC(=O)Nc3ccc(Br)cc3)[nH]c2c1`, for which the displacement is -12%.

For `CCSc1nnc2c(n1)OC(c1ccc(OCc3ccccc3)cc1)Nc1ccccc1-2` (stereo not drawn), the displacement amounted to 120%.

With `Cc1ccc(/C(O)=C2\C(=O)C(=O)N(CCCC(=O)O)C2c2ccc(Br)cc2)cc1` (stereo not drawn), the displacement was 3%.

For `CCOc1cc(/C=c2\sc3nc4ccccc4n3c2=O)cc(Br)c1OCc1ccc(F)cc1`, the displacement is 15.9%.

Turning to `COc1c(Cl)cc(C(=O)Nc2cccnc2)cc1Cl`, the displacement is -2.7%.

With `NS(=O)(=O)c1ccc(N/C=C/C(=O)c2ccc(Cl)c(Cl)c2)cc1`, the displacement is 4.8%.

On to `CC(=O)CC(=O)Nc1ccc2[nH]c(=O)[nH]c2c1`, for which the displacement was -2.2%.

Take `N#C/C(=C\c1ccc(-c2ccc(Cl)c(Cl)c2)o1)C(N)=O`: the displacement came to 7.8%.

Regarding `Cc1cc2ncn(C(=O)c3ccco3)c2cc1C`, the displacement was determined as 11.9%.

Consider `COc1ccc(CCNC(=O)/C(=C/c2ccc(C(C)C)cc2)NC(=O)c2ccccc2)cc1OC`, for which the displacement turned out to be 8.8%.

On to `COc1ccc(C2CC(=O)C3=C(C2)Nc2ccccc2NC3c2ccc(C)cc2)cc1` (stereo not drawn), for which the displacement was -6.6%.

As for `CCOc1ccc(/C=N/NC(=O)c2cc(-c3ccccc3)n[nH]2)cc1`, the displacement was -6%.

On to `Nc1cc(S(=O)(=O)Nc2ccccc2)ccc1Cl`, for which the displacement was found to be 14.2%.

In the case of `Cc1ccc(NC(=O)/C(=C/c2ccccc2Cl)NC(=O)c2ccc(C)cc2)cc1`, the displacement is -5%.

`COc1ccc(CC(=O)O/N=C(\N)Cc2ccc(Cl)cc2Cl)cc1OC`: the displacement turned out to be 10.1%.

For `COc1ccccc1/C=N\N1CCN(c2ccccc2OC)CC1`, the displacement is -4.6%.

For the compound `O=C(Nc1ccccc1-c1nc2ccccc2[nH]1)c1ccc(S(=O)(=O)N2CCCCC2)cc1`, the displacement is -6.6%.

Regarding `Cc1ccc(N2C(=O)/C(=C/C=C/c3ccccc3)C(=O)NC2=S)cc1`, the displacement was 8.5%.

Take `Cc1sc(NC(=O)C2CC=CCC2C(=O)O)c(C#N)c1C` (stereo not drawn): the displacement came out at 3.3%.

Turning to `COC(=O)c1c(-c2ccccc2)csc1NC(=O)C1CCCCC1C(=O)O` (stereo not drawn), the displacement is -9.1%.

As for `CC(=O)c1cccc(NC(=O)c2c(Cl)cccc2Cl)c1`, the displacement turned out to be 1.4%.

For `Cc1cc(C)c([N+](=O)[O-])cc1-c1ccc(C=C2C(=O)c3ccccc3C2=O)o1`, the displacement was -3.4%.

In the case of `CCOc1ccc(S(=O)(=O)N(CC(=O)N2CCCC2)c2ccc(C)cc2)cc1`, the displacement is -10.5%.

For the compound `O=C(/C=C/c1ccc(/C=C/C(=O)c2cccc(N3C(=O)C=CC3=O)c2)cc1)c1cccc(N2C(=O)C=CC2=O)c1`, the displacement was found to be 5.6%.

With `CCCOc1cccc(C(=O)Nc2cccc(C(=O)Nc3nccs3)c2)c1`, the displacement was -6.4%.

With `COc1ccc(NC(=O)c2ccc(Br)o2)cc1OC`, the displacement is -12.2%.

As for `CCOc1ccc(C2C(C(=O)OCCOC)=C(C)NC3=C2C(=O)CC(C)(C)C3)cc1` (stereo not drawn), the displacement was -3%.
